The values that follow come from article PMC6919601, “Identification of Plasmodium dipeptidyl aminopeptidase allosteric inhibitors by high throughput screening” (PLoS ONE, 2019).

Where “and” joins values, the source holds several entries; their conditions need not be identical. Equal values may be shown once. Screen size: about 110,000 compounds; about 230 (0.21%) showed an effect of 50% or more. The list shows a part of the results.
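Note: 30 min substrate incubation versus DMSO and 10 µM JCP410 controls.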

Sequence of DPAP1 (Q8IIJ9 whole entry, looked up): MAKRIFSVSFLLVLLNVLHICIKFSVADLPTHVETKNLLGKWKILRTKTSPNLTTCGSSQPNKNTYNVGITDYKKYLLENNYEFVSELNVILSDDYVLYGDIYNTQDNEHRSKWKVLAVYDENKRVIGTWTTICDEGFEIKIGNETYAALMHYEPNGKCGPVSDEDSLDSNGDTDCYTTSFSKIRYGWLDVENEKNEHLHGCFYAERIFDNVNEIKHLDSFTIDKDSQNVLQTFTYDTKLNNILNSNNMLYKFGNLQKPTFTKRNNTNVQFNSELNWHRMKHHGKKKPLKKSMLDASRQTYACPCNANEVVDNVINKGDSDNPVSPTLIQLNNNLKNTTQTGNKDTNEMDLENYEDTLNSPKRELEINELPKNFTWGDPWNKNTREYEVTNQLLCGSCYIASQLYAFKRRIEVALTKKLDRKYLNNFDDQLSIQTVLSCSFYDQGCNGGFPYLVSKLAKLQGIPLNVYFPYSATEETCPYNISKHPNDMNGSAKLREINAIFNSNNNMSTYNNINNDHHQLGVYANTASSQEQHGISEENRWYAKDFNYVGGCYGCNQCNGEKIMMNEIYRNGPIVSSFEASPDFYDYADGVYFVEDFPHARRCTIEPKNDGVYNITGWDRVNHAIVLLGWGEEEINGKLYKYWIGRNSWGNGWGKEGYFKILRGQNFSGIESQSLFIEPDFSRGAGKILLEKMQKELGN

The assay concerns the target DPAP1 (Plasmodium falciparum, UniProt Q8IIJ9). Kind of assay: primary screen, percent inhibition; read by cleavage of a fluorogenic dipeptide substrate; higher = more effect of the substance. Also noted: species or system P. falciparum D10 trophozoite lysates; single well.
With `COc1ccc(C(=O)C(OC(=O)c2cc3ccccc3oc2=O)c2ccccc2)cc1` (stereo not drawn), the “% Inhibition @ 10 uM” value amounted to 12.3%. The same measure for `CC(C)CC(NC(=O)N1CCC(N2CCCCC2)CC1)C(=O)NC(CCc1ccccc1)CCS(=O)(=O)c1ccc2ccccc2c1` (stereo not drawn): -7.36%; for `N=C(N)CCCOc1ccccc1-c1ccccc1`: 5.66%; for `CCOc1ccc(CCNC(=O)CCS(=O)(=O)Cc2ccc(C)cc2)cc1OCC`: 2.18%. In the case of `[O-][n+]1onc2c1CCc1c-2nn(-c2ccc(Cl)cc2Cl)[n+]1[O-]` it was 7.73%.

With `CCCCC1CCC(C(=O)Nc2nonc2C)CC1` (stereo not drawn), the “% Inhibition @ 10 uM” value is -5.08%. `Cn1c(=O)c2c(ncn2CC(=O)Nc2ccc(Oc3ccc(F)cc3)cc2)n(C)c1=O`: the “% Inhibition @ 10 uM” value is recorded as 4.94%. In the case of `Cc1cccc(N2CCN(Cc3csc(-c4ccccc4)n3)CC2)c1C` it was 0.98%; in that of `Cc1cccc(C)c1NC(=O)CN(C)S(=O)(=O)c1cc(Cl)ccc1Cl`, -0.318%. The same measure for `Cc1ccc(-c2cc(C(=O)Nc3ccccc3C(N)=O)c3ccccc3n2)o1`: 8.49%. Turning to `CC(=O)c1ccc(NC(=O)c2cnccn2)cc1`, the “% Inhibition @ 10 uM” value is -0.641%. The same measure for `Clc1ccccc1N1CCN(C2CCC(c3ccccc3)CC2)CC1` (stereo not drawn): 1.67%; for `c1ccc(-c2ccc(-c3cnc(-c4ccccc4)o3)cc2)cc1`: -2.55%. Turning to `CC(=O)C1=C(O)C(=O)N(c2cccnc2)C1c1ccc2c(c1)OCO2` (stereo not drawn), the “% Inhibition @ 10 uM” value is -4.69%.

As for `O=C(NCCCc1nc2ccccc2[nH]1)C12CC3CC(CC(C3)C1)C2`, the “% Inhibition @ 10 uM” value is recorded as -12.1%. The same measure for `c1ccc(CSc2nc3ccccc3n3cnnc23)cc1`: 11.6%.

Regarding `CSc1ncc(C(=O)Nc2ccncc2)c(-c2ccccc2)n1`, the “% Inhibition @ 10 uM” value is -3.19%. The same measure for `Cc1csc(NC(=O)CSc2c3c(nc4cc(Cl)ccc24)CCCC3)n1`: -1.7%. The same measure for `Cc1ccc(F)c(NC(=O)Nc2ccc(Cl)cc2)c1`: 1.29%; for `N#CC1=C(N)SC(N)=C(C#N)C1c1ccc([N+](=O)[O-])cc1`: 34.5%; for `O=C(O)c1ccccc1C(=O)NCCC1=CCCCC1`: 2.79%. In the case of `CN(Cc1ccccc1)C(Cc1ccccc1)C(=O)O` (stereo not drawn) it was -3.45%. As to `c1ccc2[nH]c(SCCN3CCCCC3)nc2c1`, the “% Inhibition @ 10 uM” value is reported as -1.99%. The same measure for `COCn1nnc(-c2ccccn2)n1`: 0.9%; for `COC(=O)[C@H](CC(C)C)NC(=O)[C@@H]1C=CCN1C#N`: 0.744%; for `Cc1ccc(C(=O)c2sc3nc(-c4ccccc4)ccc3c2N)cc1`: 1.48%. As for `CC(C)CC(NC(=O)OCc1ccccc1)C(=O)NC(CCc1ccccc1)C(=O)C1=N[C@@H](C)[C@H](c2ccccc2)O1` (stereo partly drawn), the “% Inhibition @ 10 uM” value is -5.64%. The same measure for `CCC(Cc1ccccc1)NS(=O)(=O)c1c(C)nc2sccn2c1=O` (stereo not drawn): 3.02%; for `Cc1cc(/C=C2\Cc3ccccc3C2=O)c(C)n1-c1ccccc1`: -1.31%. Turning to `COc1ccc(C2=N/C(=C\c3cccc(OC)c3OC)C(=O)O2)c(Cl)c1`, the “% Inhibition @ 10 uM” value turned out to be 3.1%. In the case of `COc1ccc(-c2cn3c(n2)sc2cc(C(=O)NCC4CCCO4)ccc23)cc1` (stereo not drawn) it was 14.9%. As for `COc1ccc(C(=O)c2oc3ccccc3c2NC(=O)C(C)(C)C)cc1`, the “% Inhibition @ 10 uM” value is reported as -1.11%. Regarding `CC[C@H](NC(=O)[C@H](CS(=O)(=O)Cc1ccccc1OC(F)F)NC(=O)N1CCOCC1)C(=O)c1nc2ncccc2o1`, the “% Inhibition @ 10 uM” value was found to be 2.87%.

Take `Cc1cccc2cc(C(=O)CS(=O)(=O)c3ccc(Cl)cc3)c(=O)oc12`: the “% Inhibition @ 10 uM” value was -6.24%. In the case of `O=CN1CCN(Cc2cc(F)ccc2F)CC1` it was 1.05%; in that of `Cc1cc(C)c(C#N)c(SCc2nc3cccc(C)n3c2Br)n1`, 0.722%; in that of `COc1ccc2[nH]cc(CCNc3nc(C)c(C(C)=O)s3)c2c1`, -2.91%. `Cc1ccc(S(=O)(=O)NC(C)C(=O)Nc2ccc(C(F)(F)F)cc2)cc1` (stereo not drawn): the “% Inhibition @ 10 uM” value is -1.61%. In the case of `CC(=O)c1ccc(N2CCN(Cc3cccnc3)CC2)cc1` it was 3.48%. The same measure for `Cc1[nH]c2ccccc2c1C(=O)CSc1ccccc1`: 3.31%. The same measure for `COCc1cc(C)nc2sc(C3=NC(C)(C)Cc4ccccc43)c(N)c12`: 3.21%; for `Cc1nn(C(C)C(=O)NCCc2ccc(Cl)cc2)c(=O)c2cc3sccc3n12` (stereo not drawn): -5.19%; for `CC1(C)CC2CC(C)(CN2Cc2cccc([N+](=O)[O-])c2)C1` (stereo not drawn): -1.41%. For the molecule `COc1ccc(C2=[N+]([O-])C(C)(C)C(c3ccccc3)=N2)cc1`, the “% Inhibition @ 10 uM” value is given as -3.21%. `COc1ccc(S(=O)(=O)Nc2ccccc2C(=O)NC(C)c2ccccc2)cc1Br` (stereo not drawn): the “% Inhibition @ 10 uM” value is reported as -0.545%.

With `CC(C)C[C@H](NC(=O)c1ccc(C(C)N2CCN(C)CC2)cc1)C(=O)NCC#N` (stereo partly drawn), the “% Inhibition @ 10 uM” value is given as -5.64%. `CCOc1ccc(C2C(C#N)=C(N)OC3=C2C(=O)CC(C)(C)C3)cc1OC` (stereo not drawn): the “% Inhibition @ 10 uM” value is -4.76%.

Take `Cc1ccc(CS(=O)(=O)CCC(=O)O)cc1`: the “% Inhibition @ 10 uM” value is 1.42%. In the case of `Oc1nc(-c2cccc(Cl)c2)nc2c1Cc1ccccc1O2` it was -2.84%; in that of `Cc1ccc(S(=O)(=O)C2CC(C)C(=O)N(Cc3ccccc3)C2=O)cc1` (stereo not drawn), -1.55%.

Turning to `Cc1ccc(NC(=O)CN2C(=O)N/C(=C/c3ccc(OCC(C)C)cc3)C2=O)cc1`, the “% Inhibition @ 10 uM” value came to 5.49%.

As for `CC1(C)CC2(CCO1)OC(=O)CC2C(=N)S` (stereo not drawn), the “% Inhibition @ 10 uM” value is listed as -2.42%. In the case of `CC1=C(C)CC2C(=O)N(c3cccc(C)c3C)C(=O)C2C1` (stereo not drawn) it was 0.913%; in that of `Cc1nc2cc(NC(=O)Nc3cccc(C(F)(F)F)c3)ccc2n1C`, -4.6%.

Regarding `COc1ccccc1C1C2=C(O)CC(C)(C)CC2=Nc2ccccc2N1C(C)=O` (stereo not drawn), the “% Inhibition @ 10 uM” value is reported as -7.02%. The same measure for `OCC1CCCCN1Cc1c(F)cccc1Cl` (stereo not drawn): -5.65%.

On to `COc1ccc(C2=N/C(=C\c3cccnc3)C(=O)O2)c(Cl)c1`, for which the “% Inhibition @ 10 uM” value is reported as 2.11%. As to `CCOc1cc2c(cc1OCC)C(c1ccc(OC)c(OC)c1)NCC2` (stereo not drawn), the “% Inhibition @ 10 uM” value is given as -1.79%. In the case of `C/C(=N\CCc1c[nH]c2ccccc12)C1=C(O)c2ccccc2C1=O` it was 4.32% and -0.467%; in that of `O=C(c1ccc(COc2ccccc2Cl)o1)N1CCCC1`, -0.988%; in that of `Cc1c(C(=O)NCc2ccccc2Cl)oc2c1-c1n[nH]cc1CC2`, 2.27%. Turning to `CC1=C(C(=O)Nc2ccccc2)C(c2cccs2)NC(S)=N1` (stereo not drawn), the “% Inhibition @ 10 uM” value was -0.294%. On to `O=c1c2ccccc2nc(CN2CCN(Cc3ccccc3)CC2)n1-c1ccc(F)cc1`, for which the “% Inhibition @ 10 uM” value is -7.17%.
